Laboratory results taken from the supplement of paper PMC12067093, “Discovery and optimisation of a covalent ligand for TRIM25 and its application to targeted protein ubiquitination” (Chemical Science, 2025).
The full data set covers some 21,000 targets. This sample favours those with the largest changes.

Compound: Cc1cc(ccc1-c1ccccc1)C(=O)N1CCCN(CC1)C(=O)CCl [compound 10]
Test: probe-labelled cysteine peptide fold change vs DMSO (competition) (log2 fold change); higher = less target engagement (more negative = stronger competition)
Conditions: THP-1, incubation time: 4 h
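Also: competitive profiling in live THP-1 cells: cysteine peptides tagged with an iodoacetamide desthiobiotin (IA-DTB) probe, intensity after compound treatment relative to DMSO-treated cells.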

Chain of UniProt Q14790 (Q14790 whole entry, looked up): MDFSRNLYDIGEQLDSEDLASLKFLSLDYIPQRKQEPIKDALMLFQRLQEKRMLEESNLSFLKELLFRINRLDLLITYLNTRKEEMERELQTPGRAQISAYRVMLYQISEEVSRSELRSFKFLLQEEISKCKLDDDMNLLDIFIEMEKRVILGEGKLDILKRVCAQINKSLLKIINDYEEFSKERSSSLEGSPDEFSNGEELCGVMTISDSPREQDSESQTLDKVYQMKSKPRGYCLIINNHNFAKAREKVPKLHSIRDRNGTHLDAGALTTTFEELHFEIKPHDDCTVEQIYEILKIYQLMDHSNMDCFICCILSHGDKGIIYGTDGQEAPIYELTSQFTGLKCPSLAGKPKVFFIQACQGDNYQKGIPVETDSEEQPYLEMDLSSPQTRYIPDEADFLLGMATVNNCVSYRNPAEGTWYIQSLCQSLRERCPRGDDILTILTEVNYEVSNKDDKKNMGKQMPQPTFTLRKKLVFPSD
Chain of UniProt Q8NFC6 (Q8NFC6 whole entry, looked up): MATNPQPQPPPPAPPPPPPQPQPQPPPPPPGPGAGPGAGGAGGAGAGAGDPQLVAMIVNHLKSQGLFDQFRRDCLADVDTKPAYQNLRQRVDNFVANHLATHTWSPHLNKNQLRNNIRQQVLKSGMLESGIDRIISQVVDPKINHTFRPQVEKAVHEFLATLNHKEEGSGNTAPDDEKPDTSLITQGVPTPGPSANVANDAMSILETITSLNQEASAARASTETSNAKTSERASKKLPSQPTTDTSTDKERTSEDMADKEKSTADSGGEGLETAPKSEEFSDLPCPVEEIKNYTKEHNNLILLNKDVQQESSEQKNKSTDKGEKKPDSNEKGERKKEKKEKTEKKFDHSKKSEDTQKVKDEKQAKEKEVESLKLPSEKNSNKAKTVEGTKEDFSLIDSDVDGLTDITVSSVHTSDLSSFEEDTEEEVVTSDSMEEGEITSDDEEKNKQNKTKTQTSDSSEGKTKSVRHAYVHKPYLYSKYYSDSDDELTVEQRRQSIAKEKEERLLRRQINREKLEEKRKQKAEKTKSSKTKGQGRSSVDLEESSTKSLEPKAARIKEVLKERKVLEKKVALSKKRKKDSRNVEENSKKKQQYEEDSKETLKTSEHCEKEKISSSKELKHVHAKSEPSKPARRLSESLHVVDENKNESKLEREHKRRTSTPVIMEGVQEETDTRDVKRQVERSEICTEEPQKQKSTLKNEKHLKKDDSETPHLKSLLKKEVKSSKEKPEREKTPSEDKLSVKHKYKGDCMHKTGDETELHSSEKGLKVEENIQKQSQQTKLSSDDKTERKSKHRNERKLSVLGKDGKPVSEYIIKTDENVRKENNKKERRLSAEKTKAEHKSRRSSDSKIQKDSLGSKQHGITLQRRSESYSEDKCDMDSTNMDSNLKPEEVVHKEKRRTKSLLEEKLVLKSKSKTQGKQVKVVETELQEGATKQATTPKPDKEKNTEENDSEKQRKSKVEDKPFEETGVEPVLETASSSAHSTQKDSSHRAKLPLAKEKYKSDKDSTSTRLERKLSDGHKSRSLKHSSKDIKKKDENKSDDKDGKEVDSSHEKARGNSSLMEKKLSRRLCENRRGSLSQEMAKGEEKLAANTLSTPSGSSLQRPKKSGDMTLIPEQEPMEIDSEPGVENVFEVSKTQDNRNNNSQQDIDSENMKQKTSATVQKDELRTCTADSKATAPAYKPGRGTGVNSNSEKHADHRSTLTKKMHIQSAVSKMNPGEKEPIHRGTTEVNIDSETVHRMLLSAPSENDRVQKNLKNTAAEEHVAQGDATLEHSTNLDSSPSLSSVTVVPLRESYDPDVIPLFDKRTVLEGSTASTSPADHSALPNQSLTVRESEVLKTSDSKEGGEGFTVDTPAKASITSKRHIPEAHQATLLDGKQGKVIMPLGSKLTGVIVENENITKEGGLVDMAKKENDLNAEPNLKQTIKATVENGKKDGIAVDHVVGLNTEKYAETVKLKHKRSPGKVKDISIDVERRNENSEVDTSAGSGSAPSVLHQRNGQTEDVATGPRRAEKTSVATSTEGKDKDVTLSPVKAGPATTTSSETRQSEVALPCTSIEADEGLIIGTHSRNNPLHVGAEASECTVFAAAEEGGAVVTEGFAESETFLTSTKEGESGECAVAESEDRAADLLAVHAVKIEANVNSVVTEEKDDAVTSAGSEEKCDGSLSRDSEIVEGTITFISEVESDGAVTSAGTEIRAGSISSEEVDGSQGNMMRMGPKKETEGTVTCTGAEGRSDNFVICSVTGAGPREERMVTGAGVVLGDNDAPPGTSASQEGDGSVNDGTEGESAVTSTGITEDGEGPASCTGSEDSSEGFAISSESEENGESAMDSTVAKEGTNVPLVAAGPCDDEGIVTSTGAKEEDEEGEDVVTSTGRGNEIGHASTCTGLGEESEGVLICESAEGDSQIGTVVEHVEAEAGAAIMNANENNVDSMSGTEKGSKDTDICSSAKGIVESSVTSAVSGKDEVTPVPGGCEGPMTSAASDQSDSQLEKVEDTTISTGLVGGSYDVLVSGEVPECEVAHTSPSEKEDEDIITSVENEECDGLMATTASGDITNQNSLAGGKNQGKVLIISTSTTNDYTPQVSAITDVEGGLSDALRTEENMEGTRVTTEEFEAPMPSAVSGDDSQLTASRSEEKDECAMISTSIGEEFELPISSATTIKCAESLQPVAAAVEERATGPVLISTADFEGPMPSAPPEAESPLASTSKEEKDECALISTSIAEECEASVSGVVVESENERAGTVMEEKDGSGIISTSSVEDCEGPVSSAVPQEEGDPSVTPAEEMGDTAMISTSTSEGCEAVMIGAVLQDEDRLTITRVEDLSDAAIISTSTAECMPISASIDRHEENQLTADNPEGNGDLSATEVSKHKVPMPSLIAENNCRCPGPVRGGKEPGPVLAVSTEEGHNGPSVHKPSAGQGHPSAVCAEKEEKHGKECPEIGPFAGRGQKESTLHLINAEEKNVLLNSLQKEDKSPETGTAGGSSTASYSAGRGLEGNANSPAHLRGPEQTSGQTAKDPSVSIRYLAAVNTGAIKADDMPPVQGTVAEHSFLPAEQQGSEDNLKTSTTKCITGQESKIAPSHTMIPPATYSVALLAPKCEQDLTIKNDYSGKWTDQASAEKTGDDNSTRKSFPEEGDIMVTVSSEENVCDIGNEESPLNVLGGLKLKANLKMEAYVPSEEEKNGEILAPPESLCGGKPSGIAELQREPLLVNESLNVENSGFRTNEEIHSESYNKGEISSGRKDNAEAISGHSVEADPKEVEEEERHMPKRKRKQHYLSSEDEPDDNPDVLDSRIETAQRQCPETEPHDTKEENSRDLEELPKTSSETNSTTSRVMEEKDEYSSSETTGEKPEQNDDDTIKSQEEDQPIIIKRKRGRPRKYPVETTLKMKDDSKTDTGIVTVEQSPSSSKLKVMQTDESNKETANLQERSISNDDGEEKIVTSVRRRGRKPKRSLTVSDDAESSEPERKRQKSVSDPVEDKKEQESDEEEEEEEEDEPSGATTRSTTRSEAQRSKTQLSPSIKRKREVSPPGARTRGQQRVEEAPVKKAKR
Chain of UniProt Q8WVB6 (Q8WVB6 whole entry, looked up): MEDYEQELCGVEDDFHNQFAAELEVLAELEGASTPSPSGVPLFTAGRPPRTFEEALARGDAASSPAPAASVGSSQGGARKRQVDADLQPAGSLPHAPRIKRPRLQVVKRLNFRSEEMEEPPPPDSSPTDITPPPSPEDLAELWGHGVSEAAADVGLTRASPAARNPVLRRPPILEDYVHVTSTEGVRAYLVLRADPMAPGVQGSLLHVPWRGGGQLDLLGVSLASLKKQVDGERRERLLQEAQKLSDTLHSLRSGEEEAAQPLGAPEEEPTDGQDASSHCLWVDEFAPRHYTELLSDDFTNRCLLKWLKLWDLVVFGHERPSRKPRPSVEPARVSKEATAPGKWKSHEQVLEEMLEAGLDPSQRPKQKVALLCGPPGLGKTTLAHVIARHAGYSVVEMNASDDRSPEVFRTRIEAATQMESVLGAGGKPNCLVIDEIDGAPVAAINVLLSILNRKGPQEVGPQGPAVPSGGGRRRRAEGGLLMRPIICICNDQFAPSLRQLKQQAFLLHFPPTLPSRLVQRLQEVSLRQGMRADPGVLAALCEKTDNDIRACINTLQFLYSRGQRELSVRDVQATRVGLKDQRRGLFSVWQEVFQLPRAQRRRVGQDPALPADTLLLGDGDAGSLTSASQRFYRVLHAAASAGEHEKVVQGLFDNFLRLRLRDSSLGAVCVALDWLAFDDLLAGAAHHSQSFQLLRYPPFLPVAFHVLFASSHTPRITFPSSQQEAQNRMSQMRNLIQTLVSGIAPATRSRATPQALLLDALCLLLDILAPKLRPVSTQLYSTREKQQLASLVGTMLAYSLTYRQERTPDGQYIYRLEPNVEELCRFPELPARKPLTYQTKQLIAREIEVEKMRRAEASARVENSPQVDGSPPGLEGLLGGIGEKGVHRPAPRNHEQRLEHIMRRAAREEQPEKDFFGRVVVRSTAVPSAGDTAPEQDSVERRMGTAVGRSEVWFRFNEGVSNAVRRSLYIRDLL
Chain of UniProt Q07812 (Q07812 whole entry): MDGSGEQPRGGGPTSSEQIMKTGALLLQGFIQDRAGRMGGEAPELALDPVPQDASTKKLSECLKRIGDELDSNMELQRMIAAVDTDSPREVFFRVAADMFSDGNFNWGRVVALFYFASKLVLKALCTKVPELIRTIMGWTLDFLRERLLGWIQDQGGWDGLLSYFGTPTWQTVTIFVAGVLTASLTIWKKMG
Chain of UniProt Q9GZN8 (Q9GZN8 whole entry, looked up): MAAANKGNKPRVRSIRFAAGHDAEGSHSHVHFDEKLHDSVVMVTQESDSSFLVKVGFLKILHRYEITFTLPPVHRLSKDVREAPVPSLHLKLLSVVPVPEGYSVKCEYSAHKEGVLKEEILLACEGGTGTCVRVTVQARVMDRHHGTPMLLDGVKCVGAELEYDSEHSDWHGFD
Chain of UniProt Q6QNY0 (Q6QNY0 whole entry): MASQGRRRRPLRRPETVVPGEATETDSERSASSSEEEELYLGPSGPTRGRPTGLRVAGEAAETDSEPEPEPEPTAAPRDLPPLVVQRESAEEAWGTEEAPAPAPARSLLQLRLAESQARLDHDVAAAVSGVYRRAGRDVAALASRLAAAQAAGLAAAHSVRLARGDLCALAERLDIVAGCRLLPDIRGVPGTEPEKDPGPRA

Target	probe-labelled cysteine peptide fold change (10 µM)	probe-labelled cysteine peptide fold change (50 µM)
ATXN10_Q9UBB4_165_NEDSQSIVWVHAFPELFLSCLNHPDKK (UniProt Q9UBB4)	0.248	0.293
BRAT1_Q6PJG6_513_LCHPCWEVR (UniProt Q6PJG6)	-0.507	-2.32
CLTC_Q00610_328_KGQVLSVCVEEENIIPYITNVLQNPDLALR (UniProt Q00610)	0.243	1.15
CHSY1_Q86X52_48_ASPEGCR (UniProt Q86X52)	-0.0127	-0.326
CAPZB_P47756_206_QMEKDETVSDCSPHIANIGR (UniProt P47756)	-0.603	-1.32
CAST_P20810_328_CGEDDETIPSEYR (UniProt P20810)	-0.0978	-0.058
BLM_P54132_444_YRPDSLDGPMEGDSCPTGNSMK (UniProt P54132)	-0.208	-0.421
BRPF1_P55201_413_ANCYTAFHVTCAQQAGLYMK (UniProt P55201)	-0.0225	-0.122
CASP6_P55212_68_GTCADRDNLTR (UniProt P55212)	-0.352	-0.342
CCDC22_O60826_567_YLAALHENCSQLIQTIEDTGTIMR (UniProt O60826)	0.507	0.935
BCCIP_Q9P287_141_GTQCVEQIQELVLR (UniProt Q9P287)	-0.00329	0.117
CAD_P27708_1374_VTAVDWHFEEAVDGECPPQR (UniProt P27708)	-0.246	-1.09
CCAR1_Q8IX12_465_SCALAEDPQELR (UniProt Q8IX12)	0.00763	0.151
CCT8_P50990_148+149_KAHEILPNLVCCSAK (UniProt P50990)	0.107	-1.12
CAPZA2_P47755_111_KEATDPRPCEVENAVESWR (UniProt P47755)	-0.209	-0.166
BMP2K_Q9NSY1_197_VENILLNDGGNYVLCDFGSATNK (UniProt Q9NSY1)	0.0762	0.0663
CANX_P27824_194_TPYTIMFGPDKCGEDYK (UniProt P27824)	-0.61	-1.04
BARGIN_Q6ZT62_64_LQACLQGQSGADMDKR<|>SH3BP1_Q9Y3L3_56_LQACLQGQSGADMDKR (UniProt Q9Y3L3+Q6ZT62)	-0.0791	-0.0804
CBFA2T3_O75081_423_CQEADREELNHWAR (UniProt O75081)	0.042	0.157
BCL7C_Q8WUZ0_211_RICPNAPDP (UniProt Q8WUZ0)	0.0814	-0.667
CDC45_O75419_31_VLLFVASDVDALCACK (UniProt O75419)	0.0846	-0.132
CDC25C_P30307_42_DTSFTVCPDVPR (UniProt P30307)	-0.302	-0.456
CCT8_P50990_347_LTPPVLEEMGHCDSVYLSEVGDTQVVVFKHEK (UniProt P50990)	-0.15	-0.323

Target	probe-labelled cysteine peptide fold change (10 µM)	probe-labelled cysteine peptide fold change (50 µM)
CLTC_Q00610_666_AVVHTHLLNPEWLVNYFGSLSVEDSLECLR (UniProt Q00610)	0.146	0.368
BRD1_O95696_729_ELLDMLDLTCAMK (UniProt O95696)	-0.0322	0.146
CDK13_Q14004_644_CLLADLPLPPELPGGDDLSK (UniProt Q14004)	-0.13	-0.34
BLVRA_P53004_281_RILHCLGLAEEIQK (UniProt P53004)	0.0103	0.216
CLASP1_Q7Z460_864_QTEDVAEVLNHCASSNWSER (UniProt Q7Z460)	0.592	0.131
CCAR1_Q8IX12_937_DLLMAFVYFDQSHCGYLLEK (UniProt Q8IX12)	0.383	1.17
AXL_P30530_588_SELEDFLSEAVCMK (UniProt P30530)	-0.0637	-0.202
CARS2_Q9HA77_526_QPLLEACDTLR (UniProt Q9HA77)	0.163	0.255
C16orf62_Q7Z3J2_321_LTCMIR (UniProt Q7Z3J2)	-0.345	-1.06
CHAMP1_Q96JM3_41_GTDYENVQIHMGTIHPEFCDEMDAGGLGK (UniProt Q96JM3)	0.114	-0.0442
BRAT1_Q6PJG6_673_THCPYAVALPEVAPAQPLTEALR (UniProt Q6PJG6)	-0.481	-1.07
BUB1_O43683_698_LSQPAAGGVLTCEAELGVEACR (UniProt O43683)	0.0033	0.164
CHD1_O14646_376_NASPEDVEYYNCQQELTDDLHK (UniProt O14646)	-0.182	-0.155
CENPF_P49454_373_LTEDLSCQR (UniProt P49454)	0.0608	0.272
CDKN2AIP_Q9NXV6_24_CDGETDK (UniProt Q9NXV6)	-0.0778	-0.163
CCT4_P50991_120_AQDIEAGDGTTSVVIIAGSLLDSCTK (UniProt P50991)	0.173	0.244
CHTF18_Q8WVB6_825_LEPNVEELCRFPELPAR (UniProt Q8WVB6)	-0.161	-0.0269
BLOC1S3_Q6QNY0_168_GDLCALAER (UniProt Q6QNY0)	-0.161	-1.28
CD58_P19256_161+166_GLIMYSWDCPMEQCK (UniProt P19256)	-0.0112	-0.0875
CENPF_P49454_621_TLFSCWK (UniProt P49454)	0.24	0.202
BAG1_Q99933_330_KVQAFLAECDTVEQNICQETER (UniProt Q99933)	-0.133	-0.168
CC2D1B_Q5T0F9_809_LERLENECEIR (UniProt Q5T0F9)	-0.174	0.209
C12orf29_Q8N999_13_KMPCVFVTEVK (UniProt Q8N999)	-0.0531	-0.206

Target	probe-labelled cysteine peptide fold change (10 µM)	probe-labelled cysteine peptide fold change (50 µM)
C20orf27_Q9GZN8_131_EGVLKEEILLACEGGTGTCVR (UniProt Q9GZN8)	0.163	-0.157
CFL1_P23528_139_KLTGIKHELQANCYEEVK (UniProt P23528)	-0.294	-1.18
BAX_Q07812_62_KLSECLK (UniProt Q07812)	0.0763	0.209
BRAT1_Q6PJG6_54_TVTEGESSVVLLQEHPCLVELLSHVLK (UniProt Q6PJG6)	-0.343	-1.29
BLM_P54132_396_LLDCGNELLQQR (UniProt P54132)	0.119	0.105
CD33_P20138_325_LHGPTETSSCSGAAPTVEMDEELHYASLNFHGMNPSK (UniProt P20138)	-0.258	-0.378
CFL1_P23528_139_LTGIKHELQANCYEEVK (UniProt P23528)	-0.346	-1.35
CASP8_Q14790_313_IYQLMDHSNMDCFICCILSHGDK (UniProt Q14790)	-0.0657	0.147
BAG5_Q9UL15_218_HLSCVLSGLIADLDALDVCGR (UniProt Q9UL15)	-0.17	-0.186
CLASP1_Q7Z460_509_CYWGFHSHFSR (UniProt Q7Z460)	0.149	0.231
CCT8_P50990_148+149_AHEILPNLVCCSAK (UniProt P50990)	0.158	-1.06
CD3EAP_O15446_14_FSCPPNFTAKPPASESPR (UniProt O15446)	-0.00148	0.231
CLTC_Q00610_824_LPVVIGGLLDVDCSEDVIK (UniProt Q00610)	-0.0301	0.396
BRMS1_Q9HCU9_136_NKYECELQGAK (UniProt Q9HCU9)	-0.259	0.135
BRD7_Q9NPI1_646_KTDVAECGPGGS (UniProt Q9NPI1)	-0.0685	0.146
BAZ1A_Q9NRL2_1195_TVPEGDWFCPECRPK (UniProt Q9NRL2)	0.186	0.0112
C3orf38_Q5JPI3_259_CPFVENTWK (UniProt Q5JPI3)	-0.493	-1.53
CDC16_Q13042_46_EEPQDIYWLAQCLYLTAQYHR (UniProt Q13042)	0.0943	1.25
BTAF1_O14981_1651_ILIFCQLK (UniProt O14981)	-0.0768	0.152
C19orf47_Q8N9M1_123_AATESVPCSPSPLAGEIR (UniProt Q8N9M1)	0.172	0.184
BOD1L1_Q8NFC6_2694_NGEILAPPESLCGGKPSGIAELQR (UniProt Q8NFC6)	-0.213	-0.323
CCS_O14618_246_QICSCDGLTIWEER (UniProt O14618)	-0.283	-3.77
